Results reported in PubChem BioAssay AID686971 (National Center for Advancing Translational Sciences (NCATS), 2013).
The campaign covered roughly 360,000 compounds. About 7,500 (2.1%) were called active. Inconclusive results, whose numbers are uncertain, are shown with a selection of clear calls. The call rests on the fitted dose curve; in most records, active means well fitted cell-killing curve with a large enough effect; inconclusive means small, poorly fitted or top-dose-only effect, or effect the other way, or another doubt; inactive means no such curve, though single readings can be large or run the other way. Potencies of inconclusive entries are left out as doubtful fits.

assay: qHTS for induction of synthetic lethality in tumor cells producing 2HG: qHTS for the HT-1080-IDH1KD cell line; conditions: HT-1080 IDH1 knockdown viability, ATP luminescence, 48 h; activity, negative = toxicity: at 46.1 µM (top of the series) unless noted;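 on activity, negative = toxicity: 0% = DMSO wells and -100% = cell-free medium wells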
Method in brief: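 Cytotoxicity counter-line: IDH1KD HT-1080, 48 h, CellTiter-Glo. Curves classed by r2, magnitude and activity.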
Potency means the concentration at half of the fitted maximal effect; tags describe the fitted curve by direction and shape.

| SMILES | Potency | activity, negative = toxicity |
| --- | --- | --- |
| COC(=O)C1=C(C)NC(=S)NC1c1ccc(-c2cc(Cl)ccc2Cl)o1 (stereo not drawn) | inconclusive [cytotoxic, single point] |  |
| COc1cccc2c1OC1(C)CC2N(C(=O)c2ccco2)C(=S)N1c1ccc(F)cc1 (stereo not drawn) | inconclusive [cytotoxic, partial curve] |  |
| O=C(COc1ccc(Cl)cc1)N1CCN(c2ccc([N+](=O)[O-])c(N3CCCCC3)c2)CC1 |  | inactive: -14% |
| NC(COCc1ccccc1)c1csc(NC(=O)Nc2cccc(C(F)(F)F)c2)n1 (stereo not drawn) | inconclusive [cytotoxic, single point] |  |
| Cn1nc(-c2ccccc2)c(CSc2ccccc2Cl)c1Cl | inconclusive [cytotoxic, single point] |  |
| O=C(NCc1nnc(SCC(=O)N2CCCC2)o1)c1cccc(C(F)(F)F)c1 |  | inactive: 4.23% |
| O=C(Oc1c(Cl)cc(Cl)c2cccnc12)c1cccs1 | active: 20.6 µM |  |
| Cn1c(=O)c(C#N)c(-c2ccc(F)cc2)c2cc(C(=O)c3cc(Cl)cc(Cl)c3O)cnc21 | inconclusive [cytotoxic, single point] |  |
| Cc1ccc(N(CC(O)Cn2c3ccccc3c3ccccc32)S(C)(=O)=O)c(C)c1 (stereo not drawn) | inconclusive [cytotoxic, single point] |  |
| COc1ccc(N=C2SC(CC(=O)Nc3ccccc3)C(=O)N2CCc2ccccn2)cc1 (stereo not drawn) |  | inactive: 10.1% |
| N#CCC(=O)N/N=C/c1cn(Cc2ccc(Cl)c(Cl)c2)c2ccccc12 | inconclusive [cytotoxic, single point] |  |
| Cc1c(C(C)(C)O)[nH]c2ccc(C(F)(F)F)cc12 |  | inactive: -6.09% |
| COc1ccc(-c2cc3cc(OC)c(OC)cc3cn2)cc1 | inconclusive [cytotoxic, single point] |  |
| CC1CCCCC1NC(=O)NC(=O)CCl (stereo not drawn) | inconclusive [cytotoxic, single point] |  |
| CCOC(=O)c1c(NC(=O)c2ccc(S(=O)(=O)N(C)CC3CCCO3)cc2)sc2c1CCN(C)C2 (stereo not drawn) | inconclusive [cytotoxic, single point] |  |
| Cc1ccc2nc(C)cc(SCC(=O)N/N=C/c3ccco3)c2c1 | inconclusive [cytotoxic, single point] |  |
| C=CC[C@H](CC(=O)N(CCO)Cc1ccccc1)C(=O)N[C@@H](COC(=O)[C@@H](CC=C)CC(=O)OC(C)(C)C)Cc1c[nH]c2ccccc12 | inconclusive [cytotoxic, single point] |  |
| COc1cccc(-n2nc(C(=O)N3CC(C)CC(C)C3)c3ccccc3c2=O)c1 (stereo not drawn) |  | inactive: 6.49% |
| O=C(CC(=O)c1ccccc1)Nc1cccnc1Cl |  | inactive: -5.12% |
| O=C(Cn1c[n+](CC(=O)c2ccc([N+](=O)[O-])cc2)cn1)c1ccc([N+](=O)[O-])cc1 | inconclusive [cytotoxic, single point] |  |
| O=C(NCC1CCCN1S(=O)(=O)c1cccs1)C(=O)Nc1ccccc1Cl (stereo not drawn) |  | inactive: -0.452% |
| COc1ccc(S(=O)(=O)Nc2cc3c4c(oc3c3ccccc23)CCCC4=O)cc1 | active: 3.66 µM |  |

| SMILES | Potency | activity, negative = toxicity |
| --- | --- | --- |
| CCN1CCN(c2oc(COc3ccc(-c4ccccc4)cc3)nc2C#N)CC1 | inconclusive [cytotoxic, single point] |  |
| O=C(C1CCCN(c2nnc(-n3cccc3)s2)C1)N1CCN(c2ccccc2)CC1 (stereo not drawn) | inconclusive [cytotoxic, single point] |  |
| COC(=O)CNC(=O)C(NC(=O)OCc1ccccc1)C(C)C (stereo not drawn) |  | inactive: 8.19% |
| CCOC(=O)Cn1cc(/C=C/[N+](=O)[O-])c2ccccc21 | inconclusive [cytotoxic, single point] |  |
| Cc1cc(Oc2ccc(Cl)cc2)nc(-c2ccccn2)n1 | inconclusive [cytotoxic, single point] |  |
| O=C(/C=C/c1cccs1)NC(=S)NNC(=O)c1ccccc1O | inconclusive [cytotoxic, partial curve] |  |
| CCN(CC)C(=O)[C@H]1C[C@H](CC(=O)NCCCn2ccnc2)C(=O)N2CCc3c([nH]c4cc(CCC(=O)N(C)C)ccc34)[C@]12C |  | inactive: -0.0864% |
| COc1cccc(C2c3[nH]c4ccccc4c3CCN2Cc2cccn2-c2ncccn2)c1 (stereo not drawn) | inconclusive [cytotoxic, single point] |  |
| O=C1CCN(CCc2ccccc2)CCN1[C@H](COc1ccccc1)Cc1ccccc1 | inconclusive [cytotoxic, partial curve] |  |
| C/C(=N\NC(=O)CSCc1cccc(Br)c1)c1ccc([N+](=O)[O-])cc1 |  | inactive: -2.41% |
| CC(C)=CCCC(C)c1cc(C(=O)NCCc2ccc(O)cc2)c(N)s1 (stereo not drawn) | inconclusive [cytotoxic, single point] |  |
| COc1ccc(/C=C/CN2CCCC(CCC(=O)NCc3ccc(F)c(F)c3)C2)cc1 (stereo not drawn) | inconclusive [cytotoxic, single point] |  |
| COc1ccc(-c2nnc(NC(=O)c3ccc(S(=O)(=O)N4CCCc5ccccc54)cc3)o2)cc1 | active: 11.2 µM |  |
| CC(Oc1ccccc1F)C(=O)NNC(=O)c1cccc(S(=O)(=O)N2CCN(C)CC2)c1 (stereo not drawn) |  | inactive: 16.2% |
| COC(=O)c1ccc2nc(-c3ccc(OC)c(OC)c3)c(Cc3ccc(OC)cc3C)n2c1 | inconclusive [cytotoxic, single point] |  |
| CN(CC#CCC(c1ccccc1)c1ccccc1)C(C)(C)C | inconclusive [cytotoxic, single point] |  |
| COc1cccc(/C=N/NC(=O)c2c(-c3ccccc3)noc2C)c1OC |  | inactive: -8.7% |
| Cc1cc(C)cc(NC(=S)NCC2CCN(C(C)c3ccccc3)C2)c1 (stereo not drawn) | inconclusive [cytotoxic, single point] |  |
| CCc1nnc(NC(=O)CSc2nc3cccnc3n2C2CCCCC2)s1 | inconclusive [cytotoxic, partial curve] |  |
| CCOC(=O)c1c(NC(=S)Nc2ccc(OC)cc2)sc2c1CCCCC2 |  | inactive: -1.17% |
| C/C(=N\NC(=O)c1ccc(C(=O)N/N=C(\C)c2ccco2)o1)c1ccco1 |  | inconclusive: 30.3% |
